# Source: US9982045B2, “Anti-CDH6 antibody drug conjugates” (Novartis AG, priority 2014, dated 2018)
# Test system: OVCAR-3 ovarian xenograft
# Experiment: OVCAR-3 ovarian xenograft mouse model
# Conditions: SMCC-DM1 conjugates, single i.v. dose 10 mg/kg
# Description: The anti-tumor activity of a selection of anti-CDH6 ADCs were evaluated in the OVCAR-3 ovarian xenograft model. Female NOD-scid-gamma mice were implanted subcutaneously on the right flank with 10×10^6 OVCAR-3 cells containing 50% Matrigel™ (BD Biosciences) in phosphate buffer solution (PBS). The total injection volume containing cells in suspension was 200 μl. Mice were enrolled in the study 29 days post implantation with average tumor volume of 165 mm^3. After being randomly assigned to one of seven groups (n=4/group), mice were administered a single i.v. dose of PBS (10 ml/kg), a non-target isotype control hIgG1-SMCC-DM1 (10 mg/kg), or one of five anti-CDH6-SMCC-DM1 (10 mg/kg). Tumor volumes and body weights were measured twice weekly.
# The anti-tumor activity of a second selection of anti-CDH6 ADCs were evaluated in the OVCAR-3 ovarian xenograft model. […] Tumor volumes and body weights were measured twice weekly.
# The anti-tumor activity of a selection of anti-CDH6 ADCs were evaluated in the OVCAR-3 ovarian xenograft model. […] Tumor volumes and body weights were measured 1-2 times weekly.
# Female NOD-scid-gamma mice were implanted subcutaneously on the right flank with 10×10^6 OVCAR-3 cells containing 50% Matrigel™ (BD Biosciences, San Jose, Calif.) in PBS. […] Tumor volumes and body weights were measured 1-2 times weekly. […]
molecule,measurement,value
"NOV0690: anti-CDH6 human IgG1 from HuCAL PLATINUM phage display; sequence in Table 5 (antibody, light chain constant region) heavy: QVQLLESGGGLVQPGGSLRLSCAASGFTFSDHAIDWVRQAPGKGLEWVSVIAGDGSITYYADSVKGRFTISRDNSKNTLYLQMNSLRAEDTAVYYCARDTGVYREYMDVWGQGTLVTVSSASTKGPSVFPLAPSSKSTSGGTAALGCLVKDYFPEPVTVSWNSGALTSGVHTFPAVLQSSGLYSLSSVVTVPSSSLGTQTYICNVNHKPSNTKVDKRV[sequence of human IgG1 Fc not given] VL: DIELTQPPSVSVSPGQTASITCSGDAIGTKFAHWYQQKPGQAPVLVIYYDHERPSGIPERFSGSNSGNTATLTISGTQAEDEADYYCYSRASSNLVFGGGTKLTVL",Anti-tumor activity (tumor growth),response comparable to that of NOV0712-SMCC-DM1
